Experimental data: PubChem BioAssay AID1458 (National Center for Advancing Translational Sciences (NCATS), 2008)
Out of some 210,000 compounds screened, about 5,900 (2.8%) were called active. The inconclusive results got no clear call from the source; some entries with a clear call stand among them for comparison. Calls follow the shape of the dose curve; as a rule, active = well fitted activation curve with a large enough effect; inconclusive = small, poorly fitted or top-dose-only effect; inactive = no such curve, though single readings can be large or run the other way. A potency beside an inconclusive call is a rough fit, not a confirmed value.

Test: qHTS Assay for Enhancers of SMN2 Splice Variant Expression; also: nearly all actives have a fitted effect of over 55% in size
Details: HEK293 SMN2-luciferase splicing reporter, luminescence, 30-36 h; series mostly up to 46.1 µM
How it was run: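 HEK293 cells carry an SMN2 minigene-luciferase reporter in which exon 7 inclusion puts luciferase in frame. Cells were seeded at 2000 cells/well, attached for 10-12 hours, then exposed to compounds for 30-36 hours at 37C before ONE-Glo luminescence.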
Potency is read from the fitted curve at half-maximal effect; tags tell the direction and shape of the fitted curve.

| SMILES | Potency |
| --- | --- |
| CCOC(=O)c1c(-c2ccc(C)cc2)csc1NC(=O)c1cc2ccccc2oc1=O | inactive |
| COC(=O)COc1ccc(=O)n(-c2ccccc2)n1 | inconclusive: 4.47 µM [activator, full curve, poor fit] |
| N/C(=N\OC(=O)c1cccc2ccccc12)c1ccc(Br)cc1 | inconclusive: 0.0562 µM [activator, full curve] |
| Cc1cc(NC(=O)CSc2nc(C3CC3)nc3sc(C)c(C)c23)no1 | inconclusive: 1.78 µM [activator, partial curve, poor fit] |
| CCOC(=O)C1(C)/C(=N/Nc2cccc(Cl)c2)C(=O)C(=O)N1c1ccccc1 (stereo not given) | inactive |
| COc1ccc(N2C(=O)CC(Sc3n[nH]c(-c4ccc(C)cc4)n3)C2=O)cc1 (stereo not given) | inconclusive: 17.8 µM [activator, single point] |
| COc1ccc2c(c1OC)C(=O)OC2c1c(O)nc(SC)n(-c2ccccc2)c1=O (stereo not given) | inconclusive: 3.55 µM [activator, partial curve, poor fit] |
| CCn1c(C)c(C(C)=O)c(N2CCN(C(=O)c3ccco3)CC2)nc1=S | inconclusive: 0.316 µM [activator, full curve, poor fit] |
| CC(=O)c1cccc(NC(=O)C2CCN(C(=O)c3cnn(-c4ccccc4)c3-n3cccc3)CC2)c1 | inactive |
| CCn1cc2nc(SCC(=O)Nc3ccc(OC)c(OC)c3)n(Cc3ccc(Cl)cc3)c(=O)c2n1 | inactive |
| COc1cc(OC)c(-c2nc3cnccc3n2C)cc1OC | inconclusive: 0.199 µM [activator, full curve] |
| COc1cc(/C=C(/C#N)c2ccc(F)cc2)ccc1OCc1ccc(C(=O)O)o1 | inconclusive: 12.6 µM [activator, partial curve, poor fit] |
| Cc1cc(/C=C(\C#N)c2nc3ccccc3[nH]2)c(C)n1C | active: 11.2 µM |
| Cc1cc(NC(=O)CSc2ccc3c(c2)OCCO3)no1 | inactive |
| c1ccc2c(c1)Cc1cc3ccccc3nc1-2 | active: 3.98 µM |
| O=C(Nc1ccccc1)Nc1cccc(Cl)c1Cl | inactive |
| COc1ccc(NC(=O)C2CCN(c3nc(C)cc(C)n3)CC2)cc1 | inactive |
| CCOC(=O)/C=C1\Nc2ccccc2OC1=O | inconclusive: 5.62 µM [activator, single point] |
| Clc1ncccc1-c1nc2ccccc2n1Cc1ccccc1 | inconclusive: 5.01 µM [activator, single point] |
| COc1ccc(-c2cn3cc([N+](=O)[O-])ccc3n2)cc1OC | inconclusive: 15.8 µM [activator, single point] |
| CCOC(=O)c1[nH]c2ccc(F)cc2c1NC(=O)Nc1ccccc1OC | inconclusive: 35.5 µM [activator, single point] |
| CC(C)c1nc2oc3ccccc3c(=O)c2c(=O)n1-c1ccccc1 | inconclusive: 12.6 µM [activator, partial curve] |
| COc1ccc(Cc2nc(-c3ccccc3)no2)cc1 | inconclusive: 12.6 µM [activator, partial curve, poor fit] |
| O=C1c2ccccc2NC(c2ccccn2)N1c1ccccc1F (stereo not given) | inactive |
| Cc1ccc(-c2nc(C#N)c(NCCc3ccccn3)o2)cc1 | inconclusive: 14.1 µM [activator, single point] |

| SMILES | Potency |
| --- | --- |
| Cc1ccc(NC(=O)CSc2nnc(-c3cccs3)o2)cc1S(=O)(=O)N(C)C | inconclusive: 17.8 µM [activator, single point] |
| CCc1nnc(NC(=O)c2cccc(S(=O)(=O)N3CC(c4ccccc4)CC3=O)c2)s1 (stereo not given) | inconclusive: 5.62 µM [activator, single point] |
| COc1ccc(C(=O)NC(=S)N2CCN(C)CC2)cc1Br | inconclusive: 3.98 µM [activator, partial curve, poor fit] |
| O=[N+]([O-])c1ccc(N2CCCCC2)cc1N1CCOCC1 | inconclusive: 0.562 µM [activator, single point] |
| C=CCn1c(SCC(=O)NC(=O)NCCC)nnc1C1CCCCC1 | inactive |
| Brc1ccc(-c2nc3ccccn3c2Nc2ccc3c(c2)OCCO3)o1 | inconclusive: 31.6 µM [activator, single point] |
| CCCS(=O)(=O)N1CCC(C(=O)NCCN(CC)c2ccccc2)CC1 | inconclusive: 35.5 µM [activator, single point] |
| O=S(=O)(c1ccccc1)N1CCC2(CCN(c3ccc(-c4ccccc4)cc3)CC2)CC1 | inactive |
| COC(=O)c1ccc(NC(=O)c2cccc(C)c2[N+](=O)[O-])cc1 | inconclusive: 11.2 µM [activator, partial curve] |
| Cc1ccccc1NC(=O)COC(=O)Cc1ccsc1 | inactive |
| COc1cc(CNc2ccc(N3CCCC3)cc2)ccc1OCc1ccccc1F | active: 17.8 µM |
| COCCCNCCOCCOc1ccccc1-c1ccccc1 | inconclusive: 5.62 µM [activator, single point] |
| NC(=O)c1sc2nc3c(cc2c1N)CCC3 | inconclusive: 20 µM [activator, partial curve, poor fit] |
| Cc1ccc(C2(C)NC(=O)N(CC(=O)Nc3ccc4c(c3)OCO4)C2=O)cc1 (stereo not given) | inconclusive: 0.0112 µM [activator, full curve, poor fit] |
| O=C(NNC(=O)c1cccs1)c1ccc(Cl)c(Cl)c1 | inconclusive: 5.62 µM [activator, full curve, poor fit] |
| O=C(Nc1ccc(F)cc1)Nc1nnc(-c2ccncc2)s1 | inactive |
| COc1ccc(C(=O)COC(=O)C(C(C)C)N2C(=O)C3C4C=CC(C4)C3C2=O)cc1 (stereo not given) | inconclusive: 0.224 µM [activator, full curve, poor fit] |
| CCOc1cc(-c2conc2N)cc(OCC)c1OCC | inconclusive: 17.8 µM [activator, partial curve, poor fit] |
| Cc1cccc(NC(=S)N(C)C2(c3ccccc3Cl)CCCCC2=O)c1 (stereo not given) | inconclusive: 2.82 µM [activator, partial curve] |
| O=C1/C(=C/c2cccs2)Sc2ccccc21 | inconclusive: 20 µM [activator, partial curve, poor fit] |
| Cc1ccc(NC(=O)N2CCc3cc(S(=O)(=O)N4CCC(C)CC4)ccc32)cc1F | inactive |
| COc1ccc(C(=O)OC2CC3CC[C@H](C2)N3C(C)=O)cc1OC (stereo not given in full) | inactive |
| C/C(=N\NC(=O)c1ccccc1)c1ccccc1Br | inconclusive: 17.8 µM [activator, single point] |
| CCCC1CC(C)(C(=O)Cn2[nH]c(=O)ccc2=O)OC1=O (stereo not given) | inconclusive: 0.01 µM [activator, full curve] |
| O=C(Nc1ccccc1Cl)c1ccccc1Cl | inactive |

| SMILES | Potency |
| --- | --- |
| CCN1CCN(Cc2ccc(NC(=O)Nc3ccc(SC)cc3)cc2)CC1 | inconclusive: 8.91 µM [activator, partial curve] |
| CC(=O)c1sc2nc(C)cc(C)c2c1N | inconclusive: 11.2 µM [activator, partial curve, poor fit] |
| Cc1ccsc1C1C(C(=O)O)c2ccccc2C(=O)N1C (stereo not given) | inactive |
| Cc1ccnc(Nc2nc(-c3c(C)nc4sccn34)cs2)c1 | inactive |
| O=C(OCc1ccccc1)c1cccc(-c2nnn(Cc3ccccc3)n2)c1 | active: 7.94 µM |
| CCOc1ccc(N2Nc3n[nH]c(N)c3N2)cc1 | inconclusive: 15.8 µM [activator, partial curve] |
| CSC1=N/C(=C\c2c(F)cccc2Cl)C(=O)S1 | inconclusive: 4.47 µM [activator, single point] |
| CC(=O)NCCCNc1ccc([N+](=O)[O-])cc1 | inconclusive: 35.5 µM [activator, single point] |
| C=CCSCC=C | inconclusive: 14.1 µM [activator, single point] |
| COc1ccc(-c2ccc(-c3nnn(CC(C)=O)n3)cc2)cc1 | inconclusive: 5.01 µM [activator, single point] |
| COc1ccc(-c2cc(-c3ccc4c(c3)NC(=O)CO4)nc3c2COc2ccc(F)cc2-3)cc1 | inactive |
| Oc1csc(Cc2nc(-c3ccc4ccccc4c3)cs2)n1 | inconclusive: 20 µM [activator, single point] |
| CCc1nnc(NC(=O)c2cccc(OC)c2)s1 | active: 15.8 µM |
| O=C(O)Cc1sc(Nc2ccccc2)nc1-c1ccccc1 | inconclusive: 22.4 µM [activator, single point] |
| O=C(Cn1cc(S(=O)(=O)c2ccccc2)c(=O)c2cc3c(cc21)OCO3)Nc1ccc(Cl)cc1 | inactive |
| COC(=O)c1ccc(CSc2ccccc2C)o1 | active: 8.91 µM |
| Cc1ccc(SCn2nnc3ccccc3c2=O)c(C)c1 | active: 15.8 µM |
| O=C(CSCn1nnc2c(=O)[nH]c(Cc3ccc(F)cc3)nc21)Nc1cccc(C(F)(F)F)c1 | inactive |
| O=C1Oc2ccccc2C(=O)/C1=C/c1ccccc1O | inconclusive: 25.1 µM [activator, single point] |
| Cc1ccc(-c2cnc3cc(C)nn3c2)cc1 | active: 12.6 µM |
| CCOc1ccccc1Oc1c(C)oc2cc(OC(=O)c3ccco3)ccc2c1=O | inconclusive: 3.55 µM [activator, partial curve] |
| Cc1cc(C(=O)CN2C(=O)C(=O)N(Cc3ccccc3)C2=O)c(C)n1-c1ccccc1F | inactive |
| Nc1ccc2nc(-c3cccs3)[nH]c2c1 | active: 22.4 µM |
| O=C(Nc1ccc(F)cc1)c1csc2c1CCCCC2 | inconclusive: 20 µM [activator, single point] |
| O=C(NCc1ccncc1)Nc1ccc(F)cc1 | inactive |
